Measurements as given in the supplement of paper PMC10126150.
Values marked as one replicate rest on one cluster of the flow cell; about a third of the high ones do not repeat.

system: ATP; test: switch fluorescence ratio, 500 uM ATP over buffer (Cy3 cluster intensity, sum of 5 cycles each) (fold (ratio)); higher = stronger signal-on switching upon ATP binding; sequences stand for … in TCGTCGGCAGCGTCAGATGTGTATAAGAGACAGTTTTTTTTTTTTTTTTTTTTTTTTT…TC; conditions: aptamer strand: ATP DNA aptamer (quencher-CACCTGGGGGAGTATTGCGGAGGAAGG + anchor), 100 nM annealed; ATP concentration: 500 uM; one replicate
Outline: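 Values give the fluorescence ratio for each switch-domain sequence, averaged from per-cluster ratios of summed target-cycle to summed buffer-cycle Cy3 intensity. The Cy3-labelled switching-strand clusters sat on a modified Illumina MiSeq flow-cell, were annealed to 100 nM quencher-labelled ATP aptamer, and were imaged in selection buffer, then after 15 min with 500 uM ATP at 22 °C. Five cycles ran with NaOH stripping and re-annealing between them, and clusters outside 100-1000 RFU were excluded.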
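Also: ATP exposure 15 min at 22 °C before imaging.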

Sequence | switch fluorescence ratio
CATTCGGTCG | 1.04
CATTCGTCAC | 1.34
CATTCTATAG | 0.986
CATTCTCGG | 0.955
CATTCTTACG | 0.988
CATTGCACCG | 1.04
CATTGGACAG | 1.01
CATTGGAGA | 0.975
CATTGGCATC | 1.12
CATTGTACTG | 1.03
CATTGTGGGG | 0.99
CATTGTTTGT | 1.01
CATTTAATCG | 0.917
CATTTAGAAA | 1.02
CATTTCGCCA | 1.14
CATTTCTAAC | 1.04
CATTTGACAA | 0.977
CATTTGATGT | 0.964
CATTTTAATC | 1.05
CATTTTATGG | 0.962
CATTTTCCAT | 1.01
CATTTTCTTT | 0.981
CATTTTGCAA | 1.26
CATTTTTTG | 1
CCAAAAAAGA | 0.992
CCAAAACA | 1.04

Sequence | switch fluorescence ratio
CCAAAAGAAG | 1.02
CCAAAAGACG | 1.01
CCAAACCGAG | 1.79
CCAAACTCAT | 1.04
CCAAAGTTG | 1.13
CCAAATGAAC | 1.03
CCAAATTATG | 1.02
CCAACACAAT | 3.91
CCAACATCTT | 1
CCAACCAAAT | 1.03
CCAACCGGCT | 1.02
CCAACGTGAG | 1.08
CCAAGATATT | 1
CCAAGCACCC | 2.23
CCAAGGTTAG | 0.997
CCAAGGTTTC | 1.06
CCAAGGTTTT | 0.989
CCAATAGCTT | 1.03
CCAATAGTTT | 1.02
CCAATGAGTT | 0.986
CCAATGGGA | 1.04
CCAATGGGGA | 1
CCAATTAAG | 1.01
CCAATTGATT | 0.94
CCAATTTAAT | 1.03
CCAATTTACA | 1.52

Sequence | switch fluorescence ratio
CCAATTTGCG | 1.03
CCACACGCTT | 2.6
CCACACTAAG | 1.08
CCACAGCTTT | 2.36
CCACAGTCTT | 1.37
CCACATTAAT | 1.06
CCACCACTGG | 1.08
CCACCCAGGA | 1.88
CCACCGTCGT | 1.32
CCACCTCTGA | 1.08
CCACGATAAA | 1.05
CCACGATTCC | 1.17
CCACGCACGT | 1.87
CCACGCGTGG | 0.955
CCACGGGCTC | 1.11
CCACGGTCCG | 0.986
CCACGTGAAC | 1.51
CCACGTTTGA | 1.02
CCACTAAATT | 1.06
CCACTAACCT | 1.84
CCACTACCT | 1.38
CCACTACTAT | 1.05
CCACTGATGT | 1.08
CCACTGGGTT | 1
CCACTTAGAG | 1.08
CCAGACAAAT | 0.992

Sequence | switch fluorescence ratio
CCAGACTGAG | 0.965
CCAGAGAAGT | 1.03
CCAGAGAGTA | 0.963
CCAGAGCCGT | 1.14
CCAGAGCGGA | 2.5
CCAGAGGGGC | 1.05
CCAGAGGTTA | 1.06
CCAGAGTCCT | 1.02
CCAGATAAGT | 1
CCAGATAGTT | 0.964
CCAGCATCCG | 1.2
CCAGCCCCCC | 1.13
CCAGCCTGCC | 1.47
CCAGCGGCCG | 0.965
CCAGCGTAT | 1.12
CCAGCTGTCT | 1
CCAGGACGCC | 1.04
CCAGGCGCGC | 0.99
CCAGGCGTAG | 1
CCAGGGATCC | 1.1
CCAGGGCCCG | 1.03
CCAGTCCTGT | 0.97
CCAGTGATTC | 1.12
CCAGTGCTTT | 1.05
CCAGTTCCA | 1.02
CCAGTTCTTG | 0.964

Sequence | switch fluorescence ratio
CCAGTTTGCG | 1.05
CCATAATCGT | 1.03
CCATACCAAT | 1.39
CCATACGGGT | 1.02
CCATAGGAAC | 1.04
CCATAGTTAG | 1.08
CCATATTGA | 1
CCATCCACAT | 1.46
CCATCCAGCA | 2.86
CCATCGATGG | 1.01
CCATCGATTC | 1.03
CCATGAAACG | 0.996
CCATGCCAT | 0.983
CCATGCTAGC | 1.11
CCATGGAGCC | 1.03
CCATGGGACC | 1.01
CCATGTAAGG | 0.963
CCATGTACAG | 1.07
CCATGTCGCG | 1.05
CCATTAGTTC | 0.974
CCATTCAGCC | 1.01
CCATTGGTTA | 0.992
CCATTGTATA | 0.983
CCATTGTGCT | 1.02
CCATTTGTTA | 1.01
CCATTTTGCT | 0.988

Sequence | switch fluorescence ratio
CCCAAAGAGT | 1.04
CCCAAAGTGT | 1.1
CCCAAATGAG | 0.992
CCCAAGGCTA | 1.13
CCCAATGTA | 1.06
CCCACAAGCC | 2.38
CCCACGTGTA | 1.22
CCCAGAGATG | 1.11
CCCAGGAGAG | 1.49
CCCAGTAGC | 1.14
CCCATCGGCT | 1.03
CCCATGAGCG | 0.98
CCCATGGCCC | 1.01
CCCATGGGAT | 0.998
CCCATGTTTG | 0.997
CCCCAAAATT | 1.06
CCCCACACGG | 1.81
CCCCATCGCG | 1.06
CCCCATGTTA | 1.05
CCCCATTTGG | 1.09
CCCCCATAAT | 1.18
CCCCCGAAGG | 1.35
CCCCGACCAA | 4.69
CCCCGAGCCA | 0.991
CCCCGAGGGT | 3.22
CCCCGATGTC | 2.07

Sequence | switch fluorescence ratio
CCCCGCGTTT | 3.65
CCCCGGAGGG | 1.01
CCCCGGATG | 1.85
CCCCGGGAGG | 1.17
CCCCGGTGAT | 5.51
CCCCGGTTGG | 1.18
CCCCGTCTGT | 1.43
CCCCTATCAG | 0.994
CCCCTCTCTG | 1.06
CCCCTGTTCT | 0.982
CCCCTTATCA | 1.02
CCCGACTGAT | 1.05
CCCGATTAGG | 0.983
CCCGTAAAGA | 1.07
CCCGTCCAGT | 1.06
CCCGTCTTAG | 0.966
CCCGTGCGTT | 1.01
CCCGTGTTGA | 1.02
CCCTAAGT | 1.02
CCCTACAGGA | 1.07
CCCTACGGGG | 1.11
CCCTATCCGA | 1.08
CCCTATTTCA | 0.989
CCCTCCTCGG | 1.37
CCCTCTGGAA | 1.55
CCCTGCGAAG | 1.08

Sequence | switch fluorescence ratio
CCCTGCGCCC | 2.51
CCCTGCTTTC | 2.59
CCCTGGCTTA | 1.02
CCCTGGTCTG | 1.05
CCCTGTCACG | 1.1
CCCTGTCGCC | 1
CCCTTAACCT | 1.64
CCCTTAAGGG | 1.01
CCCTTACT | 1.2
CCCTTCAGC | 1.05
CCCTTCGGAA | 1.58
CCCTTTAGGA | 1.01
CCCTTTGTTT | 1.01
CCGAAGTACT | 1.44
CCGACAGGTA | 1.16
CCGACCCGCG | 2.14
CCGACGGGGT | 5.18
CCGACTGAAG | 1.05
CCGAGGGGAA | 3.01
